Assay results reported in PubChem BioAssay AID485294 (National Center for Advancing Translational Sciences (NCATS), 2010).
Out of some 370,000 compounds screened, about 150 (0.041%) were called active. Inconclusive means that the source gave no clear call. Such entries were picked first, then a sample of the others. Calls follow the shape of the dose curve; as a rule, active = well fitted inhibition curve with a large enough effect; inconclusive = small, poorly fitted or top-dose-only effect; inactive = flat fitted curve, though single readings scatter. Potencies of inconclusive entries are left out as doubtful fits.

These compounds were tested against Beta-lactamase (Escherichia coli (strain K12)) (UniProt P00811) (assay: qHTS Inhibitors of AmpC Beta-Lactamase (assay with detergent)). Conditions: AmpC hydrolysis of nitrocefin, absorbance 480 nm, 0.01% Triton; series mostly up to 114 µM.
Sequence of UniProt P00811 (P00811 whole entry, looked up): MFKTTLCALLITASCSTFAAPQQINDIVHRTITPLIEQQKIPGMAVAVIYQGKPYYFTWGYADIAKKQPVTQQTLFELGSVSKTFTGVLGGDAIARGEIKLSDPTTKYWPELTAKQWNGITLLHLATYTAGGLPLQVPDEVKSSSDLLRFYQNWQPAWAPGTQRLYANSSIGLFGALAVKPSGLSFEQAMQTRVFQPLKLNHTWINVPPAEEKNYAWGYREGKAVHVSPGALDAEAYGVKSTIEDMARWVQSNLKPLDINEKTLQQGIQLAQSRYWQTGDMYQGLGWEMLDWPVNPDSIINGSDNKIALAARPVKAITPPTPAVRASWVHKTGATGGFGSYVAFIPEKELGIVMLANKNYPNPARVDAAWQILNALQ
Outline: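 AmpC (5.3 nM in the dispensed reagent) in 20 mM phosphate pH 7.0 with 0.01% (detergent screen) or 0.0001% Triton X-100 was preincubated with compounds for 15 min at room temperature. Nitrocefin was then added from an 800 uM solution, and hydrolysis was followed at 480 nm.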
Also: nearly all actives have a fitted effect of over 25% in size.
Potency is read from the fitted curve at half-maximal effect; tags tell the direction and shape of the fitted curve.

SMILES | Potency
Cc1ccc(CNC(=O)Cn2nnc(C(=O)Nc3cccc(C)c3C)c2N)cc1 | inactive
O=C(N/N=C/c1ccc2cccc(OCc3ccccc3)c2n1)c1ccc(Br)cc1 | inconclusive [inhibitor, full curve]
CC1Sc2ccc(S(=O)(=O)CCC(=O)N3CCN(c4cccc(Cl)c4)CC3)cc2NC1=O (stereo not given) | inactive
COc1ccc(C)cc1NC(=O)C(CCS(C)(=O)=O)NC(C)=O (stereo not given) | inconclusive [inhibitor, single point]
O=C(/C=C/c1cc(Br)ccc1F)OCC(=O)N1CCCC1 | inconclusive [inhibitor, partial curve, poor fit]
CC(C)(C)OC(=O)N/N=C/c1ccc(C(=O)O)cc1 | inconclusive [inhibitor, full curve, poor fit]
Cc1[nH]n(-c2ccccc2)c(=O)c1-c1ccc(Cl)cc1 | inactive
O=C(CN1CCC(n2nnc3cc(F)ccc32)CC1)NC1CC1 | inactive
C=CCNC(=O)NC(=O)COC(=O)CC(NC(N)=O)c1ccc(Cl)cc1 (stereo not given) | inactive
OC1CCCCC1N1CCC(c2ccccc2)CC1 (stereo not given) | inconclusive [inhibitor, single point]
CC(=O)c1c(C)[nH]c(C(=O)OCC(=O)NCCc2ccc(F)cc2)c1C | inactive
Cc1cc2cc(CNC(=O)c3ccc(S(=O)(=O)N(C)C)cc3)ccc2n1C | inconclusive [inhibitor, full curve, poor fit]
CN(Cc1ccccc1F)c1nc(-c2cccnc2)nc2ccccc12 | inconclusive [inhibitor, partial curve]
Cc1c(C(=O)N(C)c2cccc(C(F)(F)F)c2)sc2nc3n(c(=O)c12)CCCCC3 | inactive
Cc1ccc2nc(SCCCCOc3ccccc3)[nH]c2c1 | inactive
O=C(COc1ccccc1-c1ccccc1)c1ccccc1 | inconclusive [inhibitor, single point]
CCc1ccc(NC(=O)CCc2nc3sc4c(c3c(=O)[nH]2)CCCC4)cc1 | inconclusive [inhibitor, full curve, poor fit]
CCCC1NC(=S)NC(C)=C1C(C)=O (stereo not given) | inconclusive [inhibitor, single point]
O=c1c2c([nH]c3ccccc13)C(=C1CCCC1)CC2 | inconclusive [inhibitor, full curve, poor fit]
CCc1ccc(C(=O)COC(=O)c2cnccn2)cc1 | inconclusive [inhibitor, full curve, poor fit]
CCOC(=O)N1CCN(c2cccc(C)c2C)CC1 | inconclusive [inhibitor, full curve, poor fit]
Cc1cc(C)c(C#N)c(Sc2nnnn2-c2ccccc2)n1 | inconclusive [inhibitor, full curve, poor fit]
O=C(CSc1ccccn1)N1CCN(c2ccccc2)CC1 | inactive

SMILES | Potency
C=CCNc1nnc(Cc2ccc(C(C)C)cc2)c(=O)[nH]1 | inconclusive [inhibitor, partial curve]
O=C(Nc1cccc2cccnc12)c1ccc(Cl)cc1 | inconclusive [inhibitor, partial curve, poor fit]
COc1ccc(C(=O)CCN2CCc3cc(OC)c(OC)cc3C2)cc1 | inconclusive [inhibitor, full curve, poor fit]
CCC(c1nnnn1Cc1ccco1)N(CCc1ccccc1)Cc1cc2ccc(OC)cc2[nH]c1=O (stereo not given) | inconclusive [inhibitor, partial curve, poor fit]
CCOC(=O)c1ccc(S(=O)(=O)N2CCN(C3CC(=O)N(c4ccccc4C(F)(F)F)C3=O)CC2)cc1 (stereo not given) | inconclusive [inhibitor, full curve]
O=C(Nc1ccc(Br)cc1F)c1ccc2nsnc2c1 | inconclusive [inhibitor, full curve, poor fit]
COC(=O)COc1ccccc1C(N)=O | inconclusive [inhibitor, full curve, poor fit]
Cc1ccc(NC2OC(C(O)CO)C(O)C2O)cc1[N+](=O)[O-] (stereo not given) | inconclusive [inhibitor, full curve]
O=C(NCc1ccco1)c1cc(-c2ccccn2)nc2ccccc12 | inactive
O=C(NCCCCO)C(F)(F)C(F)(F)C(F)(F)C(=O)NCCCCO | inconclusive [inhibitor, partial curve]
Cc1ccc2nc(SCC(=O)NC3CCCCC3)nc(=O)n2c1 | inconclusive [inhibitor, full curve, poor fit]
CC(=O)Nc1ccc(NCc2ccc(C)s2)cc1 | inconclusive [inhibitor, full curve, poor fit]
CC(=O)c1ccc(NC(=O)C2CCC(CNS(=O)(=O)c3ccc4c(c3)CCCC(=O)N4)CC2)cc1 (stereo not given) | inactive
Cc1ccc(S(=O)(=O)NCCc2c[nH]c3ccccc23)cc1 | inconclusive [inhibitor, partial curve, poor fit]
O=C(Nc1nc2ccccc2[nH]1)c1cc2ccccc2o1 | inactive
COC(=O)C1=C(NC(=O)c2ccc(Br)cc2)CCS1 | inconclusive [inhibitor, full curve, poor fit]
CCc1cccc(NCc2ccccc2-c2nnc(-c3ccccc3Cl)o2)c1 | inactive
Cc1cc2ncn(/N=C/c3ccc([N+](=O)[O-])s3)c2cc1C | inactive
CCC(C(=O)NC1CCCCCC1)n1nc(C)c2c(C)n(-c3ccccc3)nc2c1=O (stereo not given) | inactive
CC(=O)Nc1ccc(S(=O)(=O)Nc2ccc(NC(=O)c3ccco3)cc2)cc1 | inconclusive [inhibitor, partial curve]
COc1ccc(C2C3=C(CC(c4ccco4)CC3=O)Nc3ccccc3N2C(C)=O)cc1 (stereo not given) | inconclusive [inhibitor, partial curve, poor fit]
NC(=O)CC(NC(=O)c1ccccc1)c1ccc(NCCc2ccc(F)cc2)c([N+](=O)[O-])c1 (stereo not given) | inactive
